Publication PMC12136788
The other results are listed elsewhere or left out.

T1: UNK ZnF1-6 (called full-length) (human, UniProt Q9C0B0 30-357)
T1 sequence: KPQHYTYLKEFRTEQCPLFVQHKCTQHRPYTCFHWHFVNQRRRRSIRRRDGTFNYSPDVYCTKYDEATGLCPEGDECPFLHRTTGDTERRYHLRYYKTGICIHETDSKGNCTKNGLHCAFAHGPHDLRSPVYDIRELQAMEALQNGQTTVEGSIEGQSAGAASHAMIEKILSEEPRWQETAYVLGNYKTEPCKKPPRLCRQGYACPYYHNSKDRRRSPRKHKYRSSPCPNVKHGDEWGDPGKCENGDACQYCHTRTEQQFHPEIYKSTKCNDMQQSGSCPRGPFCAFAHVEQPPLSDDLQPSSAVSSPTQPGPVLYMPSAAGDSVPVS

B1: chr10:116062369:116062470:-|3pUTR|ENSG00000151892|msi1|FALSE|unique (ssRNA)
RNA: GGGAGUUCUACAGUCCGACGAUCCUUUUUUCACUUCAAAAUGUUUUCAAGGGAAAUUCAGCAGACACCCAACUGUAUUUAAUUAGUGAAAAGAUCUAUAAAGACUCUUACUUUGAAUAAACACAUUAAGUAAGUGUGUCAAAACAACAGAGGAUUGAGCAUCA
B2: chr15:85581792:85581893:+|CDS|ENSG00000170776|unk|total|mutant (ssRNA)
RNA: GGGAGUUCUACAGUCCGACGAUCUGCCCAGGACGCACCUCUGCCUAAGGGGGCAGACUUGACCGAGGAGGCUGCCAGCCGUACCGUGGAUGCUGUCAUCGAACAAGUCAAGGCCGCUGGAGCACUGCUUACUGAGGGGGAGGCCAACAGAGGAUUGAGCAUCA
B3: ENSG00000136451:be:win_1451|CDS_3pUTR|ENSG00000136451|bound_else_gene|NA|bound_elsewhere_windowed (ssRNA)
RNA: GGGAGUUCUACAGUCCGACGAUCCUCCAAUGAAUCUACCCACACCUAUGACAUUAGCCGCCCCUCUCAAUAUAGCAAUGAGACCUGUAGAGAGCAUGCCUUUCUUGCCCCAAGCUUUGCCUACAUCACCGCCUUGGUAAACAGCAACAGAGGAUUGAGCAUCA
B4: chr12:107752058:107752159:-|CDS|ENSG00000110851|unk|total|mutant (ssRNA)
RNA: GGGAGUUCUACAGUCCGACGAUCUAACUCUAUAAAUGUUGAUGGUAAUACAGCAUUAUCUAUCACCAAUAACCCUUCAGCACCCGAUCCCUAUCAGUCCAAUGGAAAUGUUGGAUCCGAACCAGGCAUUGUUUCAACCGACUCCAACAGAGGAUUGAGCAUCA
B5: chrX:120253675:120253799:+|CDS|ENSG00000177485|unk|total|mutant (ssRNA)
RNA: GGGAGUUCUACAGUCCGACGAUCUAAAAUUGUUCGUGUCCGAUCAGAUUUGCUUGAUGAGUUAAUUAAAUCAGGGCAGUUAUCCGGAGUGAAAUUUACCGCAGAGCUUGGUGUCCCAUUGUCACAGGUUAAAAGCAUCUCAGGCAACAGAGGAUUGAGCAUCA
B6: chr17:3448806:3449149:-|CDS|ENSG00000141255|control|control|control (ssRNA)
RNA: GGGAGUUCUACAGUCCGACGAUCAACCGAGCUACUCAGACAAACACAUUCAUCAAAAAUAUCUGGCUGCACAAUGAGAGGGCUAGACAAAAACAGUGCACUACAGACACUUAAGCCCAAUUUUCAACAAAAUCAAUAUAAGAACAACAGAGGAUUGAGCAUCA
B7: ENSG00000107863:be:win_6401|3pUTR|ENSG00000107863|bound_else_gene|NA|bound_elsewhere_windowed (ssRNA)
RNA: GGGAGUUCUACAGUCCGACGAUCCUUUUAAUACAGUUUUUGAGUUUUGUGUGACUUGAAUUUUUAAUCUUUCUGUAAAAUACGUAACUUAAAUGAACAUAUUAAAUGUGUAUCUUUUCUUCAGAUACCAGAUUUGAUAUAAUGCAACAGAGGAUUGAGCAUCA
B8: chr10:24583932:24584033:-|3pUTR|ENSG00000107863|unk|FALSE|bound_elsewhere (ssRNA)
RNA: GGGAGUUCUACAGUCCGACGAUCAACAAAAGUGCCUCAUCAUAAAAAUACAGUUGGUUUUUAGGGUGCCAUAUUGUUAAAAUUAGAUAACUUACUUACAUUGAAUAAACGAAUGCGUUUUAUUGGUAACAGAUAUCAUUACAUCAACAGAGGAUUGAGCAUCA
B9: chr7:36452941:36453042:+|3pUTR|ENSG00000011426|msi1|total|mutant (ssRNA)
RNA: GGGAGUUCUACAGUCCGACGAUCGUCUUGAAGCAGCAACGUCUUUCAGGGGUUGGAGACAGAAACCCAUUCUCCAAUCUCAGCCGUUUUUUCGAAAGGCUGUGAUCAUUUAUUGAUCGUGAUAUGACUUGUUACCCGGGUACUCAACAGAGGAUUGAGCAUCA
B10: ENSG00000198589:be:win_8501|CDS_3pUTR|ENSG00000198589|bound_else_gene|NA|bound_elsewhere_windowed (ssRNA)
RNA: GGGAGUUCUACAGUCCGACGAUCUUGUGCUAUUUUACAACGACUUUAACCGGUGGCAUCAUGAAUACCAAACCCGCUACUGAUGGUGACAGCUGUACAUCAACUCUGCCCCUAGGAUGAGCAGAAGUACCUGGAGCAUCAUUCCAACAGAGGAUUGAGCAUCA
B11: chr5:103087900:103088172:-|CDS|ENSG00000145723|control|control|control (ssRNA)
RNA: GGGAGUUCUACAGUCCGACGAUCAAGGAUCGUGAACUAUUAGAAUAUAGAAAUACGAAAAUCUCUCCAUUGAUAGACGAUCAUAGUUCUCUUGAAAAGCAGACUUUCAGUCUGUUGGACUCUUCAAACCAGGUUCUUGAAUACCAACAGAGGAUUGAGCAUCA
B12: ENSG00000136451:be:win_3601|3pUTR|ENSG00000136451|bound_else_gene|NA|bound_elsewhere_windowed (ssRNA)
RNA: GGGAGUUCUACAGUCCGACGAUCCCUGGAUUGGGAGGCACAGUGGCCACAUUUGGAGGAAGUUCACAUUUCCUGGCAUGCAGACCCAAAACUGGGUUCUGGCUCUGCCUGCUGGGAUCUGUUAUCUCUGGUGGGCUGGCAGUCCAACAGAGGAUUGAGCAUCA
B13: chr1:151048051:151048152:+|CDS|ENSG00000143443|unk|FALSE|unique (ssRNA)
RNA: GGGAGUUCUACAGUCCGACGAUCGACCGCCUGGCUGGACCAGCGGCUGCCGAGCUCUUGGCCGCCACGGUGUCCACCGGCUUUAGCCGGUCGUCCGCCAUUAACGAGGAGGAUGGGUCUUCAGAAGAGGGGGUUGUGAUUAAUCAACAGAGGAUUGAGCAUCA
B14: chr14:23097777:23097878:+|CDS|ENSG00000179933|msi1|FALSE|unique (ssRNA)
RNA: GGGAGUUCUACAGUCCGACGAUCGAUGAAGUGUAUUCUUCACUGGUUUGCCAAUUGGUCAGGUCCCCAGCGUGAACGUUUCCUAGAGGACCUGGUAGCUAAGGCAGUGCCAGAAAAAUUACAACCACUGCUGGAUAGUCUGGACAACAGAGGAUUGAGCAUCA

What follows are binders tested against T1, UNK ZnF1-6 (called full-length) (assay: nsRBNS (natural sequence RNA bind-n-seq); RBNS binding buffer (assumed for nsRBNS): 25 mM Tris pH 7.5, 150 mM KCl, 3 mM MgCl2, 0.01% Triton X-100, 500 ug/ml BSA, 20 U/ml SUPERase-In, 4 C; UNK is unkempt and MSI1 is Musashi-1; names of the RNAs are library labels; protein concentration not given here; high values mean tight binding).

Binder | binding signal
B1 | 0.471 enrichment R
B2 | 0.926 enrichment R
B3 | 1.48 enrichment R
B4 | 0.504 enrichment R
B5 | 0.434 enrichment R
B6 | 0.578 enrichment R
B7 | 0.346 enrichment R
B8 | 1.06 enrichment R
B9 | 0.651 enrichment R
B10 | 0.558 enrichment R
B11 | 1.49 enrichment R
B12 | 0.833 enrichment R
B13 | 0.756 enrichment R
B14 | 0.498 enrichment R
